Test results as given in article PMC4336329 (PLoS ONE, 2015).
About 14,000 (4.5%) of roughly 310,000 compounds showed an effect of 50% or more. Effects have a minus sign here. Some of the results follow.

Each compound was assayed against human ether-à-go-go-related gene (hERG) potassium channel (human, UniProt Q12809) (assay: primary screen, population patch clamp on CHO cells stably expressing hERG).
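Note: peak tail current of the secondary pulse compared with the same well before compound.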

Chain of human ether-à-go-go-related gene (hERG) potassium channel (Q12809 whole entry, looked up): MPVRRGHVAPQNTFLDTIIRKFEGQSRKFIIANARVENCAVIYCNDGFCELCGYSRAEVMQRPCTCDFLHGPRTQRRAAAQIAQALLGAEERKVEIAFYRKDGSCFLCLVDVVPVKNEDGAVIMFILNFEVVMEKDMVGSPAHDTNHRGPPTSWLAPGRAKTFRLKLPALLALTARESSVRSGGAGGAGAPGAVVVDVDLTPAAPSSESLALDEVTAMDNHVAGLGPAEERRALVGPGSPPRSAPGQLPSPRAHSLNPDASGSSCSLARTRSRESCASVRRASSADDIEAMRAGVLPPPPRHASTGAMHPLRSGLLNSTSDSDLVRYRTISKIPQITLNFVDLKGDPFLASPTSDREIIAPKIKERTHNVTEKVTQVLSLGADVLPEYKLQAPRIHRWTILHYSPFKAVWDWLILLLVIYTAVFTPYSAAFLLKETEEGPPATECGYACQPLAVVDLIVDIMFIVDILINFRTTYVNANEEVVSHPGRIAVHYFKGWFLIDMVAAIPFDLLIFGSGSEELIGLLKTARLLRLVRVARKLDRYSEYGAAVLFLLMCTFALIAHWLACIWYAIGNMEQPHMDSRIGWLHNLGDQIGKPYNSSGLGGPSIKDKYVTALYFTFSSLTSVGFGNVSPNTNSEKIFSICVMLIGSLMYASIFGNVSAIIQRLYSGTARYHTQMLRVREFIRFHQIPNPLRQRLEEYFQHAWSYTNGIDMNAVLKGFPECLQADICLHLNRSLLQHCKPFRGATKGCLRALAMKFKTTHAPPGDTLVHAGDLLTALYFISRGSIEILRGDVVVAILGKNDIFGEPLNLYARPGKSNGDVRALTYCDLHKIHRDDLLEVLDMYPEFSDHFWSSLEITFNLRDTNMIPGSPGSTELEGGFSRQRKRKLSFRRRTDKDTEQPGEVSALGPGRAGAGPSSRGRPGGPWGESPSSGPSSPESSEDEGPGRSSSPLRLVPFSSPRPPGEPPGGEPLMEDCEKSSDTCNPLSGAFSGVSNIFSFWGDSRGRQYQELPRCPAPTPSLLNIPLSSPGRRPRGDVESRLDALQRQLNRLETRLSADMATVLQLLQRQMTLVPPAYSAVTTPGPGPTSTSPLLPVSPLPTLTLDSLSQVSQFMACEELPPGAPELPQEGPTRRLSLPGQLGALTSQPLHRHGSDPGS

| SMILES | hERG current change (%, negative = inhibition) at 10uM [%] |
| --- | --- |
| COc1cc(C(=O)Nc2ccc3c(c2)OCCO3)ccc1-n1cnnn1 | 22.4 |
| CC1CCN(CCCNC(=O)CN2CCN(Cc3ccc(Cl)cc3)C2=O)CC1 | -55.2 |
| Cc1cc(-c2ccc(C)c(S(=O)(=O)NCCc3ccco3)c2)on1 | -34.1 |
| COc1ccc(OC)c(-c2cc(C(=O)Nc3ccc(F)cc3F)no2)c1 | 5.05 |
| O=C(/C=C/c1cccs1)Nc1ccncc1 | 12.8 |
| O=C(COC(=O)c1cc[n+]([O-])cc1)Nc1ccc(Br)cc1 | -5.86 |
| Cc1cc(NS(=O)(=O)c2ccc(NC(=S)NC(=O)c3ccc(C(C)(C)C)cc3)cc2)no1 | 9.58 |
| CCc1ccc(-c2cc(C)no2)cc1S(=O)(=O)NCCCN1CCN(c2ccccc2)CC1 | 1.91 |
| CCc1ccccc1NC(=O)N[C@H](C(=O)O)C(C)C | 11.4 |
| CCOc1ccccc1NC(=O)CSc1nnc(Cc2cccn2C)n1-c1ccc(F)cc1 | -32.5 |
| COc1cc(C2C(C#N)=C(N)OC3=C2C(=O)CC(C)(C)C3)ccc1OCCN1CCOCC1 (stereo not shown) | 13.1 |
| CCN1CCN(CC(O)COC(c2ccccc2)c2ccccc2C)CC1.O=C(O)C(=O)O (stereo not shown) | -10.6 |
| C#CCOC(=O)C[N+](C)(C)C/C=C/c1ccccc1.[Cl-] | 10.4 |
| CC(O)CN(Cc1ccc(Cl)cc1)CC(C)O (stereo not shown) | 7.61 |
| O=C(N/C(=C/c1cccs1)c1nc2ccccc2[nH]1)c1ccccc1 | -3.24 |
| CCCCOCCCn1cnc2c([nH]c3cc(OC)ccc32)c1=O | -17.2 |
| COc1ccccc1C(=O)NCC(=O)OCC(=O)Nc1ccc2[nH]c(=O)[nH]c2c1 | -0.79 |
| O=C(COc1cccc(F)c1)NNC(=O)c1cccc(-n2cccc2)c1 | 5.76 |
| Cc1oc(C(C)(C)C)cc1C(=O)Nc1cccc(C(=O)O)c1 | 2.6 |
| CCN1C(=O)c2ccc(C(=O)Nc3ccc4c(c3)OCO4)cc2C1=O | 8.91 |
| COc1ccc(CCC(=O)Nc2cc(S(C)(=O)=O)ccc2Cl)cc1 | -8.32 |
| Nn1c(COc2ccccc2F)nnc1SCC(=O)NC1CCCCC1 | 0.335 |

| SMILES | hERG current change (%, negative = inhibition) at 10uM [%] |
| --- | --- |
| Cc1nc2ccc(NC(=O)[C@@H](NC(=O)c3c(F)cccc3F)C(C)C)cc2s1 | 1.84 |
| O=C(NCCCc1ccccc1)C(=O)NCC1OCCN1S(=O)(=O)c1ccccc1 (stereo not shown) | -25.1 |
| OCC1(Cc2cccc(Cl)c2)CCCN(Cc2cn[nH]c2C2CCCCC2)C1 (stereo not shown) | -31.4 |
| CC(=O)Oc1ccc(OC(C)=O)c(SCCCCC[NH+]2CCOCC2)c1.[Cl-] | -0.904 |
| Cc1ccccc1N1CCN(C2CCCN(C(=O)c3ccccn3)C2)CC1 (stereo not shown) | -9.78 |
| Cc1ccc(C(=O)OCC(=O)NCc2ccccc2)cc1S(=O)(=O)N1CCCCC1 | -26.5 |
| CC(C)(C)OC(=O)NCCCC(CCCNC(=O)OC(C)(C)C)C(=O)O | 3.55 |
| CC(C)(C)C(=O)c1no[n+]([O-])c1/C(=N/O)C(C)(C)C | 0.66 |
| CSc1ccccc1NC(=O)C1CCCN(S(C)(=O)=O)C1 (stereo not shown) | 21.9 |
| CN1CCN(S(=O)(=O)c2cccc(S(=O)(=O)c3ccc(Cl)cc3)c2)CC1 | -31.7 |
| COC(=O)CSc1nnc(Cc2ccccc2)n1-c1ccc(C)cc1 | -23 |
| NC(=O)C1CCN(C(=O)C2CCN(S(=O)(=O)c3ccccc3)CC2)CC1 | 9.79 |
| COC(=O)CCNCCSc1nnc(-c2ccco2)n1Cc1ccccc1.O=C(O)C(=O)O | -64.5 |
| Cc1cc(C)cc(NC(=O)C(OC(=O)c2ccc([N+](=O)[O-])o2)c2ccccc2)c1 (stereo not shown) | -1.24 |
| CCN(CCCNC(=O)CC(C(=O)N1CCc2ccccc21)n1ccnc1)c1ccccc1 (stereo not shown) | -45.6 |
| CSc1ccc(CN(C)C(=O)CNC(=O)c2sc3ccccc3c2Cl)cc1 | 13.2 |
| Cc1ccc(C(=O)NCC(=O)Nc2cccc(C(F)(F)F)c2)cc1 | 8.49 |
| Cc1[nH]c(=O)c(C(=O)c2cc(Cl)ccc2O)cc1C(=O)O | 20.3 |
| O=C(NCCc1cccs1)C1CC(c2ccc([N+](=O)[O-])cc2)=NO1 (stereo not shown) | -49.9 |
| Cc1ccc(NC(=O)C2CC(=O)Nc3nc4ccccc4n32)c(C)c1 (stereo not shown) | 5.39 |
| CCc1ccc(-c2nc(CS(=O)CC(=O)NCc3cccnc3)c(C)o2)cc1 (stereo not shown) | -22.7 |
| Cc1ccc(COc2ccccc2C(=S)N2CCCC2)cc1 | 19 |

| SMILES | hERG current change (%, negative = inhibition) at 10uM [%] |
| --- | --- |
| Cc1occc1C(=O)N1CCCC(N2CCN(c3ccccc3F)CC2)C1 (stereo not shown) | 4.38 |
| COc1cccc(-n2c(SCC(=O)NCC3CCCO3)nc3c(c2=O)SCC3)c1 (stereo not shown) | 6.13 |
| COC(=O)CSc1nnc(COc2ccc([N+](=O)[O-])cc2)n1C | -47.6 |
| Cn1c(=S)n(/N=C/c2ccc3c(c2)OCO3)c2ccccc21 | 13.5 |
| CN(C)c1ccc(-n2cccc2/C=N/n2cnnc2)cc1 | 15.5 |
| Cc1ccc(N2C(=O)NC(=O)C(CCc3ccccn3)(Cc3ccc(F)cc3)C2=O)cc1 (stereo not shown) | 12.9 |
| C=CCC1Cc2c(cccc2[N+](=O)[O-])C(CC=C)N1 (stereo not shown) | -8.35 |
| O=C(NC1=NCCS1)C12CC3CC(CC(C3)C1)C2 | 9.94 |
| CCC1CCCCN1C(=O)CCC(=O)Nc1nnc(C(F)(F)F)s1 (stereo not shown) | 5.01 |
| CC(C)(C)OC(=O)N1Cc2ccccc2C[C@H]1C(=O)O | 13.7 |
| Cc1ccc(C(=O)NNC(=O)C2CSC3(C)CCC(=O)N23)cc1 (stereo not shown) | 24.9 |
| CCOC(=O)c1cnc2c(c(C)nn2C)c1Oc1ccc(Cl)cc1 | -4.44 |
| COc1ccc(N2CCCC2)c(NC(=O)c2ccc([N+](=O)[O-])o2)c1 | 14 |
| COC(=O)c1ccc(/C=C(\C#N)c2nc3ccccc3s2)cc1 | 7.58 |
| Cc1ccc(CN(c2ccc(C(=O)N3CCOCC3)cc2)S(C)(=O)=O)cc1 | -8.81 |
| Cc1cc(C(=O)N(C)CC(=O)Nc2ccc(F)c(F)c2F)no1 | 21.4 |
| Cc1csc(C(C#N)C(=O)c2ccc(S(=O)(=O)N3CCCC3)cc2)n1 (stereo not shown) | 5.45 |
| CN(Cc1ccc(F)cc1)C(=O)c1cccc(S(=O)(=O)N2CCN(c3ccc(F)cc3)CC2)c1 | -34.6 |
| CSc1cnc2c(=O)[nH]c(=O)n(C)c2n1 | 2.97 |
| CCC(NC(=O)CCc1nnc(-c2cc(C)on2)o1)C12CC3CC(CC(C3)C1)C2 (stereo not shown) | 10.7 |
| CC1(c2nnc(-c3ccc(Cl)cc3)o2)CC(c2ccc(Cl)cc2)=NO1 (stereo not shown) | -8.01 |
| CCC(C)(C)NC(=O)C(c1ccc(OC)cc1)N(CCOC)C(=O)CCC(=O)Nc1nccs1 (stereo not shown) | 0.428 |

| SMILES | hERG current change (%, negative = inhibition) at 10uM [%] |
| --- | --- |
| COC(CNC(=O)c1ccc(CS(=O)(=O)c2ccc(Br)cc2)o1)OC | 3.41 |
| CCOCC(=O)Nc1nnc(COc2ccc(Cl)cc2)s1 | 0.0563 |
| Cc1c(CCC(=O)NCCCN2CCCC2=O)c(=O)oc2c(C)c(O)ccc12 | 13.6 |
| N#CCCN(Cc1cccs1)C(=O)Nc1ccccc1 | 11.8 |
| S=C(NCc1cccs1)Nc1ccccc1Cl | 9.58 |
| O=C(N/N=C\C=C\c1ccco1)C1COc2ccccc2O1 (stereo not shown) | 5.7 |
| Fc1cccc(F)c1/C=N/Nc1ccccn1 | 22.9 |
| Cc1ccccc1NC(=O)Cc1nc(CCl)cs1 | 24.6 |
| COc1ccc(CNC(=O)c2ccc(S(=O)(=O)NCc3ccco3)cc2)cc1 | -11.4 |
| COc1cccc(CNC(=O)[C@H](CCSC)NC(=O)N2CCn3c2nc2ccccc23)c1 | -31.1 |
| O=C(Nc1ccc(F)cc1)c1c(O)c2c(n(Cc3ccccc3)c1=O)CCCC2 | 4.71 |
| O=C(OCC(=O)N1CCOCC1)c1ccc2c(c1)OCCO2 | 1.71 |
| CC1(C)CC(N2CCN(CCO)CC2)=CC(=S)N1 | 19.3 |
| CCOc1cc(C=O)ccc1OCCCN1C(=O)NC(C)(C)C1=O | 12.4 |
| Cn1cc(CNC(=O)COc2ccc(Cl)cc2Cl)cn1 | 5.68 |
| COc1cc(S(=O)(=O)NCCCN2CCOCC2)ccc1-n1cnnn1.O=C(O)C(=O)O | 11 |
| Nc1ccc(C(=O)C(=O)c2ccccc2)cc1 | 9.89 |
| COc1ccc(CNN2CCCCC2C(=O)Nc2ccc(OC)c(OCC(C)C)c2)cc1OC (stereo not shown) | -34.4 |
| COc1ccc(-c2ccc(SCC(=O)c3ccc(F)cc3)nn2)cc1OC | -13.7 |
| O=C(CSc1nnc(-c2ccncc2)n1-c1ccc(F)cc1)NNC(=O)c1cccc(O)c1 | 11.1 |
| O=C1CC(C(=O)N2CCC(N3CCC(C(=O)NC4CC4)CC3)CC2)c2ccccc21 (stereo not shown) | -5.42 |
| O=C1c2ccccc2NC(c2ccc(Cl)cc2Cl)N1O (stereo not shown) | 6.79 |
